Laboratory results reported in the supplement of paper PMC12645437, “Orthogonal IMiD-Degron Pairs Induce Selective Protein Degradation in Cells” (ACS Chemical Biology, 2025).
This is one part of the list.

These sequences were tested against no compound (DMSO) (assay: log2 fold change of degron read counts, EGFP-low vs EGFP+ sorted cells; higher = lower degron-EGFP level without compound (poor expression or instability)). Conditions: compound: DMSO control; 18 h.
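Further: jurkat cells carrying a lentiviral library of mutant zinc finger degrons fused to EGFP plus mCherry, mCherry+ cells FACS sorted, degron abundance counted by next-generation sequencing.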

| Sequence | log2 fold change of degron read counts |
| --- | --- |
| FNCPICGRNFTQKGNLLRHIKL | -0.557 |
| LDCNQCGFLCTQKGNLLRHIKL | 1.38 |
| FLCEVCGAQFTQKGNLLRHIKL | -1.99 |
| FFCNQCGRIFTQKGNLLRHIKL | 1.28 |
| FVCEICGRDFTQKGNLLRHIKL | -2.35 |
| FECPVCGAEFTQKGNLLRHIKL | -1.74 |
| FECNVCGAHFTQKGNLLRHIKL | -2.44 |
| FNCDICGAMFTQKGNLLRHIKL | -0.623 |
| FTCPICGHDFTQKGNLLRHIKL | -1.71 |
| FNCPQCGAQFTQKGNLLRHIKL | -0.705 |
| FGCDVCGAGFTQKGNLLRHIKL | -1.07 |
| FHCEICGAFFTQKGNLLRHIKL | -1.2 |
| FCCNQCGRSFTQKGNLLRHIKL | -0.178 |
| LMCNQCGFQCTQKGNLLRHIKL | 0.429 |
| FTCPVCGAHFTQKGNLLRHIKL | -0.102 |
| LGCPICGFACTQKGNLLRHIKL | 1.32 |
| FDCNVCGAHFTQKGNLLRHIKL | -1.92 |
| FLCNVCGACFTQKGNLLRHIKL | -0.413 |
| FTCEICGRAFTQKGNLLRHIKL | -1.95 |
| FMCDICGAEFTQKGNLLRHIKL | -2.43 |
| FHCDVCGASFTQKGNLLRHIKL | -1.56 |
| FECPICGAMFTQKGNLLRHIKL | -0.623 |
| LNCNQCGFECTQKGNLLRHIKL | -0.454 |
| FCCNQCGAFFTQKGNLLRHIKL | -0.249 |
| LECNQCGFVCTQKGNLLRHIKL | -0.879 |

| Sequence | log2 fold change of degron read counts |
| --- | --- |
| FMCNVCGAPFTQKGNLLRHIKL | -0.325 |
| FSCNQCGARFTQKGNLLRHIKL | 0.321 |
| FRCEQCGANFTQKGNLLRHIKL | -0.892 |
| FKCEICGHDFTQKGNLLRHIKL | -2.22 |
| FSCPICGRMFTQKGNLLRHIKL | -0.0917 |
| FGCPICGAFFTQKGNLLRHIKL | 0.285 |
| FCCNQCGHAFTQKGNLLRHIKL | -0.0218 |
| FFCEVCGARFTQKGNLLRHIKL | -1.71 |
| FICEICGRRFTQKGNLLRHIKL | -1.14 |
| FMCNQCGRDFTQKGNLLRHIKL | -0.797 |
| LQCNQCGFGCTQKGNLLRHIKL | -0.276 |
| FTCSVCGHDFTQKGNLLRHIKL | -2.02 |
| FACEICGHTFTQKGNLLRHIKL | -2.32 |
| FFCPICGALFTQKGNLLRHIKL | 1.12 |
| FVCEICGAMFTQKGNLLRHIKL | -1.3 |
| LVCEICGFVCTQKGNLLRHIKL | -0.347 |
| FKCEVCGAWFTQKGNLLRHIKL | -0.58 |
| FECDICGAPFTQKGNLLRHIKL | -1.21 |
| FHCEVCGARFTQKGNLLRHIKL | -1.75 |
| FKCNVCGAKFTQKGNLLRHIKL | -0.608 |
| FRCDICGASFTQKGNLLRHIKL | -1.56 |
| FRCPICGRRFTQKGNLLRHIKL | 0.0701 |
| FSCNICGADFTQKGNLLRHIKL | -1.25 |
| FICDICGADFTQKGNLLRHIKL | -2.7 |
| FACNQCGRNFTQKGNLLRHIKL | -0.255 |
